# Results published in the supplement of paper PMC11348887.
# Where a name gives a salt, the structure may show the parent alone. This is one part of the list. No stated cut-off is given here; in the data, active = -2 or less and inactive = the rest. Repeats are few or missing, and single values can be far off.
# Test system: hPSC-derived cortical neurons (WA09)
# Experiment: nuclei number (viability) z-score; higher = more surviving cells
# Settings: 5 µM; treatment: days 7-14 after plating, readout day 21
# 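Further: nuclei counted from DAPI counterstain by automated high-content image analysis, four fields per well at ×20 in 384-well plates, with sequential b-score then z-score normalization.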
row,SMILES,nuclei number (z-score)
1,CN1C2CCCC1CC(NC(=O)c1nn(C)c3ccccc13)C2 (stereo not given) [Granisetron HCl],inactive: -1.55
2,CC(=O)O/N=C1\C(=O)N(Cc2cc(Cl)ccc2Cl)c2ccc(Cl)cc21,inactive: -0.264
3,Cc1ncc([N+](=O)[O-])n1CCO [Metronidazole],inactive: 4.88
4,O=C(Cc1cccc(OC(F)(F)F)c1)Nc1ccc(CCCCc2nnc(NC(=O)Cc3ccccn3)s2)nn1,inactive: -0.58
5,CCN(CC)CC#CCOC(=O)C(O)(c1ccccc1)C1CCCCC1 (stereo not given) [Oxybutynin chloride],inactive: -0.503
6,CCN(CC)CC#CCOC(=O)C(O)(c1ccccc1)C1CCCCC1 (stereo not given) [Oxybutynin],inactive: -0.906
7,CCN(Cc1ccncc1)C(=O)C(CO)c1ccccc1 (stereo not given) [Tropicamide],inactive: 0.442
8,CC(C)C(=O)OCC(=O)[C@@]12O[C@H](C3CCCCC3)O[C@@H]1C[C@H]1[C@@H]3CCC4=CC(=O)C=C[C@]4(C)[C@H]3[C@@H](O)C[C@@]12C [Ciclesonide],inactive: -0.44
9,Nc1nc(Cl)nc2c1ncn2[C@@H]1O[C@H](CO)[C@@H](O)[C@@H]1F [Clofarabine],active: -4.1
10,COc1ccc(-c2cc(=O)c3c(O)cc(O)cc3o2)cc1O [Diosmetin],inactive: 7
11,CN1CC[C@H](c2c(O)cc(O)c3c(=O)cc(-c4ccccc4Cl)oc23)[C@H](O)C1 [Flavopiridol (Alvocidib)],active: -6.22
12,CN1CC[C@H](c2c(O)cc(O)c3c(=O)cc(-c4ccccc4Cl)oc23)[C@H](O)C1 [Flavopiridol HCl],active: -7.76
13,CN(C)Cc1c(C(=O)NCCOc2ccc(C(=O)NO)cc2)oc2ccccc12,active: -3.16
14,CC(C)NCC(O)COc1ccc(COCCOC(C)C)cc1 (stereo not given) [Bisoprolol fumarate],inactive: 3.09
15,NC(=O)c1cnc2[nH]ccc2c1NC1[C@@H]2CC3C[C@H]1CC(O)(C3)C2 (stereo not given in full),inactive: 0.0414
16,O=C1CN2Cc3c(ccc(Cl)c3Cl)N=C2N1 [Anagrelide HCl],inactive: 1.27
17,CC(=O)N1c2ccc(-c3ccc(C(=O)O)cc3)cc2[C@H](Nc2ccc(Cl)cc2)C[C@@H]1C,active: -2.76
18,CC[C@H]1OC(=O)[C@H](C)[C@@H](O[C@H]2C[C@@](C)(OC)[C@@H](O)[C@H](C)O2)[C@H](C)[C@@H](O[C@@H]2O[C@H](C)C[C@H](N(C)C)[C@H]2O)[C@](C)(O)C[C@@H](C)/C(=N\OCOCCOC)[C@H](C)[C@@H](O)[C@]1(C)O [Roxithromycin],inactive: 0.276
19,Nc1nc(F)nc2c1ncn2[C@@H]1O[C@H](CO)[C@@H](O)[C@@H]1O [Fludarabine],inactive: -1.95
20,O=c1[nH]c(=O)n(C2CC(O)C(CO)O2)cc1Br (stereo not given) [Bromodeoxyuridine (BrdU)],inactive: 1.11
21,O=C(NCCS(=O)(=O)c1ccc(C(F)(F)F)cn1)c1ccc(Cl)cc1,inactive: -0.178
22,C=C1CC[C@H](O)C/C1=C/C=C1\CCC[C@]2(C)[C@@H]([C@H](C)CCCC(C)(C)O)CC[C@@H]12 [Calcifediol],inactive: -0.468
23,CC(C)CC(=O)Nc1n[nH]c2c1CN(C(=O)C1CCN(C)CC1)C2(C)C,active: -4.58
24,Nc1nc(=O)c2nc(CNc3ccc(C(=O)N[C@@H](CCC(=O)O)C(=O)O)cc3)cnc2[nH]1 [Folic acid],inactive: -0.199

row,SMILES,nuclei number (z-score)
1,NC(CO)(CO)CO [Trometamol],inactive: 0.657
2,O=C(CCCCCCNC(=O)c1cnc(N(c2ccccc2)c2ccccc2)nc1)NO [Rocilinostat (ACY-1215)],active: -3.86
3,O=c1ncccn1[C@@H]1O[C@H](CO)[C@@H](O)[C@H]1O [Zebularine],inactive: -0.36
4,NC(=O)N1c2ccccc2C=Cc2ccccc21 [Carbamazepine],inactive: 0.307
5,CC(C)n1nc(-c2cc3cc(O)ccc3[nH]2)c2c(N)ncnc21,inactive: -0.989
6,NCCC[C@H](N)C(=O)O [L-Ornithine],inactive: 2.09
7,Clc1ccc(C(Cn2ccnc2)OCc2c(Cl)cccc2Cl)c(Cl)c1 (stereo not given) [Isoconazole nitrate],inactive: -0.483
8,CNc1nc(Nc2cnn([C@H]3CCN(C4COC4)C[C@@H]3F)c2Cl)ncc1C(F)(F)F,inactive: 0.41
9,O=c1cc(-c2ccc(O)cc2)oc2cc(O)cc(O)c12 [Apigenin],inactive: 3.49
10,CO[C@H]1/C=C/O[C@@]2(C)Oc3c(C)c(O)c4c(c3C2=O)C2=NC3(CCN(CC(C)C)CC3)NC2=C(NC(=O)/C(C)=C\C=C\[C@H](C)[C@H](O)[C@@H](C)[C@@H](O)[C@@H](C)[C@H](OC(C)=O)[C@@H]1C)C4=O [Rifabutin],inactive: 0.544
11,CC(=O)OCC(COC(C)=O)OC(C)=O [Triacetin],inactive: -0.55
12,C[C@@H](N)[C@H]1CC[C@H](C(=O)Nc2ccncc2)CC1,inactive: 2.77
13,c1cnc2cc3c(cc2n1)[C@@H]1CNC[C@H]3C1 [Varenicline Tartrate],inactive: 1.42
14,N#Cc1ccc(-c2c(-c3ncn[nH]3)sc(N3CCOCC3)c2C#N)c(F)c1,inactive: -1.54
15,c1ccc(C2CN3CCSC3=N2)cc1 (stereo not given) [Tetramisole HCl],inactive: 0.0708
16,C=C1c2cccc(O)c2C(=O)C2=C(O)[C@]3(O)C(=O)C(C(N)=O)=C(O)[C@@H](N(C)C)[C@@H]3[C@@H](O)[C@H]12 [Methacycline HCl],inactive: 1.12
17,Cn1c(=O)c2nc[nH]c2n(C)c1=O [Theophylline],inactive: -0.279
18,Cn1c(=O)cc(N2CCC[C@@H](N)C2)n(Cc2cc(F)ccc2C#N)c1=O [Trelagliptin],inactive: 1.44
19,CC(C)(C)c1[nH]cnc1/C=c1\[nH]c(=O)/c(=C/c2ccccc2)[nH]c1=O [Plinabulin (NPI-2358)],active: -3.49
20,Cc1c(-c2ccnn2C)cc(C(=O)NCc2ccc(S(C)(=O)=O)cn2)c(=O)n1-c1cccc(C(F)(F)F)c1 [Alvelestat (AZD9668)],inactive: 0.261
21,CCCCCCCCCCCCCCCCCCOP(=O)([O-])OC1CC[N+](C)(C)CC1 [Perifosine (KRX-0401)],inactive: -0.495
22,O=C(Nc1ccc(OC(F)(F)F)cc1)c1sccc1NCc1ccnc2ccccc12,inactive: 1.98
23,COc1cc(/C=C/C(=O)N2CCN(CC(=O)N3CCCC3)CC2)cc(OC)c1OC [Cinepazide maleate],inactive: 1.49
24,CC(COc1ccccc1)N(CCCl)Cc1ccccc1 (stereo not given) [Phenoxybenzamine HCl],inactive: -0.512

row,SMILES,nuclei number (z-score)
1,Nc1ncn([C@@H]2O[C@H](CO)[C@@H](O)[C@H]2O)c(=O)n1 [Azacitidine],inactive: 0.0965
2,CCCNC(C)C(=O)Nc1ccccc1C (stereo not given) [Prilocaine],inactive: -0.0436
3,COc1ccc(CN(CCN(C)C)c2ccccn2)cc1 [Pyrilamine Maleate],inactive: 0.924
4,CC(=O)Nc1cccc2c1c(Sc1ccc(Cl)cc1)c(C)n2CC(=O)O,inactive: 1.3
5,COc1cccc(-c2ccc(NC(=O)C3=C(C(=O)O)CCC3)c(F)c2)c1 [Vidofludimus],inactive: 0.0164
6,Clc1cccc(-c2nnnn2Cc2cccnc2)c1Cl,inactive: -0.0132
7,C/C=C1/[C@H](O[C@@H]2O[C@H](CO)[C@@H](O)[C@H](O)[C@H]2O)OC=C(C(=O)OC)[C@H]1CC(=O)OCCc1ccc(O)c(O)c1 [Oleuropein],inactive: -0.261
8,Cc1cc(=O)oc2cc(O)ccc12 [4-Methylumbelliferone (4-MU)],inactive: 1.49
9,O=C(NC1CCN(CCCCC2(C(=O)NCC(F)(F)F)c3ccccc3-c3ccccc32)CC1)c1ccccc1-c1ccc(C(F)(F)F)cc1 [Lomitapide Mesylate],active: -4.44
10,O=C(NC1CCN(CCCCC2(C(=O)NCC(F)(F)F)c3ccccc3-c3ccccc32)CC1)c1ccccc1-c1ccc(C(F)(F)F)cc1 [Lomitapide],active: -7.85
11,COc1ccc(C(=O)CC2(O)C(=O)Nc3c(Cl)ccc(Cl)c32)cc1 (stereo not given),inactive: -0.0853
12,CC(C)(C)Cn1c(N)nc2ccc(-c3[nH]c(C(C)(C)C)nc3-c3ccc(F)cc3)nc21,inactive: -0.432
13,CCCN[C@H]1CCc2nc(N)sc2C1 [Pramipexole],inactive: 8.25
14,CCCN[C@H]1CCc2nc(N)sc2C1 [Pramipexole 2HCl Monohydrate],inactive: 3.06
15,CCOC(=O)c1ccc(OC(=O)CCCCCNC(=N)N)cc1 [Gabexate Mesylate],inactive: -1.35
16,COC1=C(OC)C(=O)C(CCCCCCCCCCO)=C(C)C1=O [Idebenone],inactive: 0.326
17,CCOC(=O)[C@H](CCc1ccccc1)N[C@H]1CCc2ccccc2N(CC(=O)O)C1=O [Benazepril HCl],inactive: -0.271
18,Cn1cc(-c2ccc(F)c(C(F)(F)F)c2)nc1C1CCN(c2ncnc3[nH]ncc23)CC1,inactive: 0.654
19,O=C(Nc1c[nH]nc1-c1nc2ccc(CN3CCOCC3)cc2[nH]1)NC1CC1,inactive: 1.42
20,O=C(c1cccc(Cl)c1F)N1CCN(Cc2cccc(Nc3nccs3)n2)CC1,inactive: 0.776
21,CC(C)[C@H]1C(=O)N[C@@H](CCCNC(=N)N)C(=O)NCC(=O)N[C@@H](CC(=O)O)C(=O)N[C@H](Cc2ccccc2)C(=O)N1C [Cilengitide],inactive: 2.78
22,COc1cccc(NC(=O)/C=C/c2ccc(Cl)cc2)c1,inactive: -0.441
